In all, about 4,100 sequences were measured (“relative CpG methylation activity (normalised to average over all NNNCGNNN flanks)”: median about 0.87, highest 2% from about 2.4 on). The list shows a part of the results.
biological target: DNMT3A catalytic domain (mouse) (UniProt O88508); experiment: relative CpG methylation activity (normalised to average over all NNNCGNNN flanks) (relative (1 = mean)); higher = more methylation of the central CpG; details: system: in vitro, murine catalytic domain; CpG state: hemimethylated substrate pool; residues: 608-908
Experimental: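 Deep enzymology: a pool of dsDNA substrates with a central CpG flanked by 10 random nucleotides on each side was methylated by the murine DNMT3A or DNMT3B catalytic domain (0.8 mM SAM, 37 °C, 60 min). Methylation was then read out by hairpin ligation, bisulfite conversion and NGS. Values are the average methylation of each NNNCGNNN context (±3 flanks; the outer flanks are random and averaged over), normalised to the overall mean, so 1 = average activity.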

| Sequence | relative CpG methylation activity |
| --- | --- |
| GCACGGGA | 1.04 |
| GGACGTCG | 1.01 |
| TGACGGTC | 0.636 |
| GAACGACT | 0.672 |
| TATCGGTA | 0.417 |
| CGTCGAGA | 0.333 |
| ATCCGCGC | 1.76 |
| ACTCGCAA | 1.06 |
| GGGCGCGA | 0.679 |
| GGGCGTTT | 0.238 |
| GGCCGCGA | 0.973 |
| CGGCGGCG | 0.517 |
| CTCCGAAT | 1.39 |
| TCTCGTAC | 0.759 |
| CCGCGTTC | 1.34 |
| GCCCGCGA | 1.06 |
| CGTCGTGG | 0.246 |
| ATCCGACT | 1.44 |
| GTCCGTGG | 0.588 |
| CCCCGGTG | 0.539 |
| TGTCGATA | 0.255 |
| GTGCGACT | 1.59 |
| TCGCGCCC | 1.58 |
| GTCCGGCC | 1.95 |

| Sequence | relative CpG methylation activity |
| --- | --- |
| GGACGTCC | 1.27 |
| TGTCGATC | 0.929 |
| TTCCGACT | 1.9 |
| ATGCGACG | 1.57 |
| ACGCGGCC | 1.26 |
| AGCCGTAA | 0.721 |
| CGACGAAC | 0.915 |
| TCACGAAA | 1.08 |
| CGCCGGCC | 0.909 |
| AAACGTGA | 0.312 |
| GGACGATT | 0.55 |
| GCTCGCCA | 1.82 |
| CTGCGAGG | 0.764 |
| GTCCGCCA | 1.87 |
| TGACGACC | 0.727 |
| AGTCGTCG | 0.73 |
| ATGCGCAA | 1.49 |
| TAACGGTT | 0.556 |
| AGCCGAAG | 0.419 |
| GAGCGTAC | 0.689 |
| GAACGTTC | 0.876 |
| GTCCGCCT | 2.6 |
| CTCCGGTA | 1.29 |
| GCTCGAGG | 0.538 |

| Sequence | relative CpG methylation activity |
| --- | --- |
| CTCCGCTC | 2.19 |
| ACACGGCA | 1.69 |
| GTACGCAG | 1.08 |
| ATGCGGTT | 0.679 |
| GGACGAGG | 0.282 |
| ATGCGCAG | 1.09 |
| TTCCGTTT | 1.52 |
| CCGCGGGG | 0.0962 |
| GTCCGTTT | 1.38 |
| ATGCGGCA | 1.23 |
| GATCGCTA | 0.757 |
| CGGCGGAG | 0.025 |
| AAACGCAT | 0.686 |
| CAGCGCAC | 0.701 |
| ACCCGTAT | 0.921 |
| TATCGGGC | 0.556 |
| GGGCGGTC | 0.962 |
| AGTCGCGC | 0.408 |
| CGCCGGTA | 0.746 |
| CGCCGACA | 0.962 |
| ACACGGTG | 0.321 |
| CCACGGTC | 1.49 |
| TGTCGTCC | 1.39 |
| GGGCGGTA | 0.543 |

| Sequence | relative CpG methylation activity |
| --- | --- |
| AGGCGGAA | 0.565 |
| TTCCGAGT | 1.61 |
| TGTCGTCG | 1.13 |
| ATCCGGTA | 1.3 |
| ATCCGGAT | 1.34 |
| CGACGTAG | 0.598 |
| AGACGCAG | 0.457 |
| TCGCGAGT | 0.57 |
| CCCCGGGC | 1.25 |
| TGACGCAA | 0.89 |
| GTGCGAGG | 0.764 |
| CACCGGCG | 0.51 |
| GTCCGTTG | 1.25 |
| CGGCGCAC | 1 |
| CTACGCTC | 2.66 |
| GCACGCTG | 1.67 |
| TGCCGAGG | 0.443 |
| ATGCGCAT | 1.65 |
| ACCCGGCA | 1.26 |
| ATACGTTC | 2 |
| GCGCGTAG | 0.824 |
| TGACGTAC | 0.438 |

Source: the supplement of paper PMC7335073
